Reference: ChEMBL document CHEMBL4888484, “Replenishing the malaria drug discovery pipeline: Screening and hit evaluation of the MMV Hit Generation Library 1 (HGL1) against asexual blood stage Plasmodium falciparum ,using a nano luciferase reporter read-out” (2022)
The campaign covered roughly 150,000 compounds. About 540 (0.36%) showed an effect of 50% or more. The list shows a part of the results.

system: Plasmodium falciparum; assay: Primary screen in NF54 nanoGlo assay, in single point, at 2uM, 72h; a lower Z score goes with more inhibition; type: functional, Erythrocyte; conditions: timepoint 72 hour

Row | Structure (SMILES) | % Inhibition | Z score
1 | Cc1cc(C)c2[nH]c(C(=O)NC3CCN(C[C@H]4CCCO4)CC3)c(C)c2c1 | -12% | 1.83
2 | O=S(=O)(Nc1ccc(-c2cc3cc(F)ccc3[nH]2)cc1)c1cccc(F)c1 | -5% | 0.86
3 | Cc1noc([C@H]2CCN(c3nc4cc(Br)ccc4o3)C2)n1 | -4% | 0.62
4 | N#Cc1cnc(N2CC[C@H](N3CCCCC3)C2)nc1N | -20% | 2.33
5 | Cc1ccnc(-n2cc(S(=O)(=O)NCc3ccc(S(N)(=O)=O)cc3)cn2)c1 | 31% | -3.45
6 | N#Cc1c(F)cccc1OC[C@H]1C[C@@H](O)C1 | -11% | 1.53
7 | COc1cnc(NC(=O)NC[C@@H](C)CCO)nc1 | -10% | 1.4
8 | CC1(C)CCCN(C(=O)c2csc(NC(=O)c3cccc(C(F)(F)F)c3)n2)C1 | 6% | -0.95
9 | CCc1nc(CN(C)c2nc(N)nc3ccc(C(=O)O)cc23)no1 | 13% | -1.24
10 | CC(C)(C)c1cc(NS(=O)(=O)c2ccc3c(c2)C(=O)NCC3)[nH]n1 | 4% | -0.57
11 | COCc1n[nH]c(-c2cnc3ccc(F)cc3c2)n1 | 6% | -1.09
12 | Cc1ccc2cc1Oc1cccc(c1)CO[C@H]1CN(c3cc(N(C)C)ncn3)C[C@@H]1NC(=O)CN(C)C2=O | -3% | 0.52
13 | CC(C)NC(=O)CN(C)Cc1noc(C(C)(C)C)n1 | 8% | -1.1
14 | COCCCOC1CN(c2cccc(C#N)n2)C1 | -12% | 1.49
15 | Cc1nonc1NC(=O)COc1c(F)c(F)c(F)c(F)c1F | -14% | 1.58
16 | O[C@H]1CCCN(Cc2cc3c(cc2Br)OCCCO3)C1 | -7% | 0.88
17 | Cc1[nH]c2ncnc(NC(=O)C3CCC(F)(F)CC3)c2c1C | -10% | 1
18 | Cc1cc(-n2cnnn2)cc(NC(=O)NCCc2ncnn2C)c1C | -11% | 2.04
19 | CCCCN(CC)C(=O)c1ccc(Cl)cc1Cl | 5% | -0.71
20 | COC(=O)N[C@@H](C)C(=O)N1CCc2n[nH]cc2C1 | -18% | 1.59
21 | CN(Cc1cscn1)C(=O)CN1CCCCCC1=O | -3% | 0.37

Row | Structure (SMILES) | % Inhibition | Z score
22 | Cc1nn(C)c(C)c1CN(C)c1nccnc1C#N | -10% | 1.48
23 | O=C(CNS(=O)(=O)N1CCc2ccccc2C1)N1CCCCC1 | -6% | 0.83
24 | CCc1nccn1C1CCCN(C(C)c2nc(C)cc(O)n2)C1 (stereo not drawn) | -15% | 1.29
25 | CN(C)C(=O)CN1C(=O)[C@@H]2CC[C@H]1CN(C(=O)c1ccc(F)cc1Cl)C2 | -2% | 0.28
26 | O=C(Cc1c(F)cccc1Cl)N1CC(COc2ccc3c(c2)OCO3)C1 | 6% | -0.86
27 | CC1(C)[C@H]2CC[C@]1(C)[C@H](OC(=O)C1CCCN(C(N)=O)C1)C2 (stereo partly drawn) | -16% | 1.43
28 | CC1CCCCN1C(=O)C1CC(=O)c2sc(NC(=O)C3CCC3)nc2C1 (stereo not drawn) | -6% | 0.85
29 | Cc1ccc(=O)n(CC(=O)N2CCC[C@H](CCc3ccc(F)cc3F)C2)n1 | -14% | 2.17
30 | CCCCOc1ccc(C)cc1-c1nc(C)nc2c1cnn2C | -9% | 1.67
31 | Cc1cc(=O)c(CO)nn1CC(=O)N(C(C)C)C(C)C | -8% | 1.58
32 | Cc1nn(C(C)(C)C)cc1C(=O)N1CCN(C)[C@]2(CCOC2)C1 | -4% | 0.6
33 | CN(CCCc1nccn1C)c1cc(N2CCCC2)nc(N)n1 | -14% | 2.64
34 | CC(C)Oc1ccc([C@@]2(C)NC(=O)NC2=O)cc1 | -3% | 0.55
35 | CC(=O)N1CCCc2cc(NCc3ccc(CO)o3)ccc21 | -17% | 2.04
36 | O=c1cc(-c2ccccc2)cc(-c2ccccc2)n1Cc1ccccc1 | 8% | -1.24
37 | O=C(NCCCn1cccn1)c1cn2c(n1)C(=O)N[C@H](c1ccc(F)cc1)C2 | 0% | -0.04
38 | CC(C)CNC(=O)CCN(c1nc(-c2ccco2)nc2ccccc12)C1CCCCC1 | 0% | 0
39 | Cc1nn(CCC(=O)N2CCN(C)[C@H](c3ccccc3)C2)c(C)c1C | 1% | -0.16
40 | NC(=O)Nc1cc(Cl)c(Cl)cc1F | -2% | 0.23
41 | O=C(Cc1c(Cl)cccc1Cl)N1CCC[C@H]1c1nnn[nH]1 | -6% | 0.8
42 | C=CCn1c(=O)c2sc(N(CC)CC)nc2n(CC(=O)Nc2ccc(CC)cc2)c1=O | -30% | 2.68

Row | Structure (SMILES) | % Inhibition | Z score
43 | CCc1cnc(C)nc1N1CCC[C@@]2(CCC(=O)N(Cc3ccccn3)C2)C1 | -14% | 1.85
44 | O=C(O)[C@H]1CCCCN1C(=O)c1coc2ccccc12 | -16% | 2.2
45 | COc1cccc(-c2nc(CCn3c(C)cc(=O)cc3O)no2)c1OC | -12% | 2.29
46 | Cc1cc(CS(=O)(=O)[C@@H](C)C(=O)N2CCCc3ccccc32)no1 | 0% | -0.03
47 | Cc1c(NC(=O)c2cc3nc(-c4ccc(Cl)c(Cl)c4)cc(C(F)(F)F)n3n2)c(=O)n(-c2ccccc2)n1C | 29% | -3.23
48 | COc1cc(NS(=O)(=O)c2ccccc2F)ccc1N1CCCCC1=O | -16% | 2.43
49 | Clc1ccc([C@@H]2CN(Cc3ccc(-c4cc[nH]n4)s3)CCO2)cc1 | -19% | 2.55
50 | Cc1cnc(-c2ccc(C(=O)N[C@@H](C)Cc3cnccn3)cc2)nc1N(C)C | -4% | 0.74
51 | Cc1nn(-c2ccc(Cl)cc2)cc1-c1noc(C(=O)NCCc2ccccc2)n1 | -12% | 1.48
52 | CC1=NS(=O)(=O)N(C)C=C1C(=O)OCc1ccccc1 | -12% | 2.33
53 | COc1cccc(-n2c(=O)n(C3CCCC3)c(=O)c3c2ncn3Cc2cccc(F)c2)c1 | -13% | 1.5
54 | COCC(C)(C)C(=O)NCc1nc(C(F)(F)F)c[nH]1 | -5% | 0.86
55 | Nc1ncccc1CN1CCN(C(=O)N2CCCC2)C[C@@H](O)C1 | -7% | 1.21
56 | Cc1ccc(-c2nccc(Nc3ccc(C(=O)Nc4ccc5c(c4)OCCO5)cc3)n2)cc1 | 0% | 0.03
57 | Cc1nnc(CNC(=O)c2ccc(CN3CCC(C)CC3)o2)s1 | -5% | 1.06
58 | C[C@H]1CCC(=O)N1c1ccc(NC(=O)c2cc(-c3cccs3)nn2C)cc1 | 7% | -1.08
59 | COc1ccc(S(=O)(=O)N(C)c2ccnc(C(=O)NCc3cccnc3)c2)cc1 | -13% | 2.12
60 | Cc1ccc(CN2CC[C@@](C)(O)[C@H](N3CCCC3)C2)o1 | -10% | 1.27
61 | CNc1nc2c(c(C(=O)N3CCCC3)n1)CN(C(=O)CCc1ccnn1C)CC2 | -4% | 0.69
62 | Cn1cc(Cl)c(C(=O)NC(C)(C)CN2CCCCCC2)n1 | -8% | 1.07
63 | COc1cc(C2CN(C(=O)Cc3ccccc3)CC2C(=O)NCC(C)C)cc(OC)c1OC (stereo not drawn) | -1% | 0.18

Row | Structure (SMILES) | % Inhibition | Z score
64 | N#Cc1cc(Br)ccc1S(=O)(=O)N1CC2CCC1C2 (stereo not drawn) | -4% | 0.66
65 | CC(C)(C)CN(CCS(C)(=O)=O)Cc1ccccc1 | -5% | 0.44
66 | O=C1Nc2ccccc2S(=O)(=O)N1CC#Cc1ccc(Cl)cc1 | 0% | 0.05
67 | CC1CC(NC(=O)N2Cc3cc(F)c(F)cc3C2)CN1C1CC1 (stereo not drawn) | 8% | -1.49
68 | COc1cc(-c2cnc3ccccc3c2)cc2c1OCCN(c1cc(N)ncn1)C2 | 1% | -0.09
69 | NC(=O)C1CCN(c2ccc(NC(=O)CC3CC4CCC3C4)cc2)CC1 (stereo not drawn) | -8% | 1.11
70 | CCc1nn(C)c(CC)c1CN1CC[C@H](C(=O)N(C)C)C1 | -4% | 0.55
71 | C=CCCc1ccccc1NC(=O)N1C[C@H]2[C@H](OC)CS(=O)(=O)[C@H]2C1 | -4% | 0.41
72 | C[C@H]1CC[C@@](C)(CNC(=O)Nc2cn(C)nc2C2CC2)C1(C)C | 2% | -0.25
73 | Cn1cc([C@H]2N(C(=O)c3cc4cnccc4[nH]3)CC2(C)C)cn1 | -3% | 0.4
74 | Cc1ncn(Cc2cc(-c3ccccc3)on2)c(=O)c1C | -1% | 0.16
75 | O=C(O)c1ccc(S(=O)(=O)N2CCc3ccccc3CC2)c(F)c1 | 26% | -2.94
76 | C[C@H](C#N)CN(C)CC(=O)N1CCC(c2ccccc2)=N1 | -1% | 0.07
77 | CNc1nc(C)cc(N2CC[C@H]3[C@H](CCC(=O)N3CCc3ccccc3)C2)n1 | 3% | -0.53
78 | Cc1nnc(CN2CCO[C@@H](CC(C)C)C2)s1 | 1% | -0.15
79 | Cc1nc([C@H](C)NCc2ccc(-c3cccc(Cl)c3Cl)o2)n[nH]1 | -6% | 0.79
80 | COc1cnc(C(=O)NC[C@H]2COCCO2)nc1 | -6% | 1.16
81 | CS(=O)(=O)N1CCC(NC(=O)c2ccc(Oc3ccccc3)cc2)CC1 | -2% | 0.36
82 | Nc1ccc(-c2ccc(NC3CCCC3)nn2)cn1 | -16% | 1.48
83 | O=C(Nc1ccc(Br)cc1)c1ccc2c(-c3ccccc3)onc2c1 | 11% | -1.05
84 | O=C(O)CCN(C(=O)CCc1ccc(Cl)cc1Cl)C1CCOCC1 | -10% | 1.38
